Variants at the background level are over-represented here.

The values below come from the RNAGym collection of RNA variant scans (doi:10.1073/pnas.2313332121).

The labels stand for the following.
B1: TPR 5TU (parent)
chain: GGAUCUUCUCGAUCUAACAAAAAAGACAAAUCUGCCACAAAGCUUGAGAGCAUCUUCGGAUGCAGAGGCGGCAGCCUUCGGUGGCGCGAUAGCGCCAACGUUCUCAACUAUGACACGCAAAACGCGUGCUCCGUUGAAUGGAGUUUAUCAUG

The series covers variants of B1. Briefly: polymerase ribozyme fitness, log enrichment relative to wild type (log ratio); higher = more active; in vitro selection for triplet polymerase activity. In a few lines: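 Each subunit of a heterodimeric triplet polymerase ribozyme was represented by a PCR-built, transcribed mutant library that underwent triplicate single-round in vitro selection with frozen incubation at −7 °C. Extended constructs were recovered by gel excision, streptavidin-bead capture and RT-PCR, and Illumina sequencing of input and output libraries kept genotypes with ≥10 input reads and ≥1 read per output. Fitness is the logarithm of genotype enrichment relative to wild-type enrichment, from inverse-variance-weighted replicate averages, with a logarithm base of 2.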
For A19G G34U U56A G70A U134A, the “polymerase ribozyme fitness (log ratio)” value was not above -4.2.
A19C C38A C57A G80U C95U C116G: the “polymerase ribozyme fitness (log ratio)” value was -1.83.
For A20G C36A U55A A120U A121U C123U C125G G143A, the “polymerase ribozyme fitness (log ratio)” value is not above -4.2.
In the case of A20G C27U C38U U53A U77G A106C C116U U146C G152C it was not above -4.2; in that of A20G C36G G48C A66G C85A G88A, not above -4.2; in that of A19U U53G C93G, not above -4.2.
As for A19U C38U A49C G58C C79U G88A A97C, the “polymerase ribozyme fitness (log ratio)” value was not above -4.2.
In the case of A19U A91U C93A A122U G143C it was not above -4.2; in that of A19U A26G C38G U45A C69U C96A C103U, not above -4.2; in that of A20C C36U A40C U56A A89U U111G U130A A142G, not above -4.2.
On to A19U G48A C116G U127G, for which the “polymerase ribozyme fitness (log ratio)” value is not above -4.2.
In the case of A20G C87A U101C A142C it was not above -4.2; in that of A20U A89U, -2.12; in that of A19U C105G A138C U145G, not above -4.2.
In the case of A19U G50A G71A A89G A137G it was not above -4.2.
On to A19G C35U G70C A91C G100U A113G G124C A138C, for which the “polymerase ribozyme fitness (log ratio)” value was not above -4.2.
A19U G67A: the “polymerase ribozyme fitness (log ratio)” value was not above -4.2.
Consider A20C G58A G70A U77G G141A A142C, for which the “polymerase ribozyme fitness (log ratio)” value is not above -4.2.
Take A20C U77A C85G G92C A120G A121C A150G: the “polymerase ribozyme fitness (log ratio)” value was not above -4.2.
In the case of A19U U44A it was not above -4.2.
As for A19C A24U C114U C118U G141A U145G, the “polymerase ribozyme fitness (log ratio)” value was not above -4.2.
Regarding A19U A21C C35G A41U A52C C87A C114U C118U, the “polymerase ribozyme fitness (log ratio)” value is not above -4.2.
In the case of A20C C43U U44A U55G C79U G141A it was not above -4.2; in that of A20C A22U C51U, -0.386.
On to A19G A52G G58A C93G U102C U135G G143A, for which the “polymerase ribozyme fitness (log ratio)” value is not above -4.2.
With A19G C35U U127G G133C, the “polymerase ribozyme fitness (log ratio)” value was not above -4.2.
As to A20U A47U C87U A110G U135A, the “polymerase ribozyme fitness (log ratio)” value is not above -4.2.
In the case of A19C G62C C72A C87A C131U U135A it was not above -4.2; in that of A20C U56A C93A C116A, -1.28; in that of A20G G81A C96U C114G U127G A142C, not above -4.2.
In the case of A19U A28G A40U A41C G62C C93U G94A A115U C118A C131G it was not above -4.2; in that of A19U G25A C27G C93U C108U C114A A150G, not above -4.2; in that of A20C A22U G58A U77C C96G, not above -4.2.
A19C C85U: the “polymerase ribozyme fitness (log ratio)” value is -0.536.
In the case of A19U C38U C54G G62A G84A, the “polymerase ribozyme fitness (log ratio)” value is not above -4.2.
In the case of A19G G25A A49C C57U C63U C93A A97U C118G U139A it was not above -4.2; in that of A20G A24U U44A G50A C96U C132U A150C, not above -4.2; in that of A19U G34A A60C G83A C96G U101C, not above -4.2.
In the case of A19G A40C C79A G83A G141U C149G it was not above -4.2; in that of A20C A37C U45A G88U C96A U102C C103A U109C A120G C125A, not above -4.2.
In the case of A20U C27G G59C G84C C99G C105G it was not above -4.2; in that of A19C U44A, -3.87; in that of A19C U53A G71C G92C U148A, not above -4.2.
As to A20U A52G G67A C93G, the “polymerase ribozyme fitness (log ratio)” value is not above -4.2.
In the case of A20G A22G A41G G50A G58A C75A it was not above -4.2; in that of A19U G83A C85U U90G A106C U144A, not above -4.2; in that of A20G A23U G81C C95A A147U, not above -4.2.
In the case of A20U A64C G84U it was not above -4.2; in that of A19C C27G G70A C76U G94U C103U A120U C129A U148C, not above -4.2; in that of A20U A22U A121U G128A C129U A137C A138C, not above -4.2.
Take A19U C32A C36U U90C C95G U134A: the “polymerase ribozyme fitness (log ratio)” value was not above -4.2.
For A20C G59A G81C G86C, the “polymerase ribozyme fitness (log ratio)” value is -3.14.
Consider A19U G59A G83U U139G, for which the “polymerase ribozyme fitness (log ratio)” value is -1.28.
In the case of A19C A39C G65A A91U C125G it was not above -4.2; in that of A20U A28U C96G, not above -4.2; in that of A20U A39U C51A G94C A98U C103A, not above -4.2.
Consider A20G A142C, for which the “polymerase ribozyme fitness (log ratio)” value was -1.06.
In the case of A20G G46U A73U G84A C125A it was not above -4.2; in that of A19U C32U U45G U55A U56A G71A G88U C116U A122U G128C, not above -4.2.
Take A20C C63U A64C: the “polymerase ribozyme fitness (log ratio)” value was not above -4.2.
Consider A20G U45A C57U C116A, for which the “polymerase ribozyme fitness (log ratio)” value is not above -4.2.
Take A19G A26U C85A A97C A119U C123U: the “polymerase ribozyme fitness (log ratio)” value is not above -4.2.
In the case of A19U A60U C85U C108U A120U U139A G143C it was not above -4.2.
On to A20U A23G G88A C99G C149G, for which the “polymerase ribozyme fitness (log ratio)” value was not above -4.2.
In the case of A20C C85U A115U it was -1.06; in that of A20C C51A G67U C95U A120G U139A, not above -4.2; in that of A20C A21U C51A G86U C95A G133C, not above -4.2.
In the case of A19U C54U C57A C93A G94A A113G A122G G124A it was not above -4.2; in that of A20C U61A C63U C85U, -1.55.
On to A20C C27U A47G A73G U77G G84U C114U C149A, for which the “polymerase ribozyme fitness (log ratio)” value is not above -4.2.
As for A20C C57A G84U A119U U148G U151A, the “polymerase ribozyme fitness (log ratio)” value is not above -4.2.
On to A20G G42C C85G A91C C125A, for which the “polymerase ribozyme fitness (log ratio)” value was not above -4.2.
Turning to A19U A20U C85U, the “polymerase ribozyme fitness (log ratio)” value is -2.59.
In the case of A19G C27G A52U G71U G80A G84A C118A it was not above -4.2.
In the case of A20G G84A U151G it was not above -4.2.
In the case of A19C C27A A47C G58A G59A A91G C123A, the “polymerase ribozyme fitness (log ratio)” value was not above -4.2.
As to A19C G84A A119C U135G G140U, the “polymerase ribozyme fitness (log ratio)” value is not above -4.2.
As to A19U A41G U44A G83A G86A C108A U146C, the “polymerase ribozyme fitness (log ratio)” value was not above -4.2.
In the case of A20C U55G C57U A120C it was -0.73; in that of A20G A40C C72U G92A, -4.04; in that of A20C C76A A119U, -1.
On to A20C C54A U61G G70A C85U A98G A150C, for which the “polymerase ribozyme fitness (log ratio)” value is not above -4.2.
In the case of A19G A22U G70A C105U A150G it was not above -4.2.
